The RNAGym collection of RNA variant scans (doi:10.7554/elife.90254)
The source gives no read counts; variants with many changes may rest on few reads.

B1: LINE1-full (parent)
chain: UACGUAGGUGGUUUUCCCCUGAUAGUGCUAAGGGGGCCUGGAAGUUUGGACUGGGCAGAGCUCAACACAGCGUGGCAAAGUGGCUGUGGCUAGACUGCCUCUCUGGAUUCCUCGUCACUCAGCAGGGCAUCUCUGAGAGAAAUGCC

Variants of: B1
Assay: self-cleavage, relative activity (ratio to wild type); higher = more cleavage; in vitro, sequencing; the parent is a self-cleaving ribozyme
In the case of G36U U104A U134C, the self-cleavage is reported as 0.56.
U26A G72U U104C gave a self-cleavage of 0.69.
Variant A67U U73A A129G has a self-cleavage of 0.1.
U62C A136G A141U showed a self-cleavage of 0.01.
U14C A50G A67U A141G showed a self-cleavage of 0.11.
With G4A U46C C120U the self-cleavage was 1.05.
G8A A117U G127U gave a self-cleavage of 1.13.
A22C A59G U81C showed a self-cleavage of 0.
A67G A79G U85C gave a self-cleavage of 0.
With U12C C38A G72C the self-cleavage was 1.02.
Work on C28U U73A U91C U104C U143G yielded a self-cleavage of 0.94.
With A94U A107G A141G the self-cleavage was 0.21.
Work on G11U U46C G55A C133U yielded a self-cleavage of 0.77.
Variant U47G A59G G75A A129U has a self-cleavage of 0.12.
Variant U1C U9C A77G has a self-cleavage of 0.99.
A30U C76U U87A showed a self-cleavage of 0.1.
C37A U108C A142G showed a self-cleavage of 1.78.
With A31G U62C A64U A136G the self-cleavage was 0.
Variant G34A U104C G135A A140G has a self-cleavage of 1.83.
Variant U46C A79G G89A U96A has a self-cleavage of 0.05.
For U5C U91C U100C A107G, the self-cleavage was 0.
A6G A42G C103A showed a self-cleavage of 1.23.
Variant U14C U20C U132A has a self-cleavage of 1.84.
For A50G U52A G89A, the self-cleavage was 0.05.
For A57G U91C U115G, the self-cleavage was 0.26.
In the case of U12C A43G G125A, the self-cleavage is reported as 1.37.
In the case of U47C A57G U85G, the self-cleavage is reported as 0.
With C38G A67G U85A the self-cleavage was 0.02.
With G10A U20A A94G A141G the self-cleavage was 0.84.
U109A U115C U130A showed a self-cleavage of 2.06.
With U73C A94G A136G the self-cleavage was 0.
In the case of A42G U112A G125C A140G, the self-cleavage is reported as 1.99.
With A6G G27A A69U A129G U134G A140G the self-cleavage was 0.07.
With U39C A77U U100C A140G the self-cleavage was 1.91.
Variant A78G U87A C99U has a self-cleavage of 0.03.
U47A U81A A121G U143A gave a self-cleavage of 1.9.
Work on U81C U87C C120U yielded a self-cleavage of 0.39.
In the case of A57G A64G A77G G80U, the self-cleavage is reported as 0.32.
In the case of U9A A43G A117U A142G, the self-cleavage is reported as 1.56.
Variant U13C A78G U96A has a self-cleavage of 0.1.
Variant U20A G36U U46A has a self-cleavage of 1.06.
For U13C A43G A67U U96C U119C, the self-cleavage was 0.29.
With G11C A22G A117U the self-cleavage was 0.72.
Variant U47C A78G U102A U112A U143C has a self-cleavage of 2.04.
Work on A77G C84U U100A U104C A121U yielded a self-cleavage of 0.13.
In the case of A22U U39A U52G U85A A140G, the self-cleavage is reported as 0.12.
A64G A79G A124U gave a self-cleavage of 0.
U5C A31G A64G U104C showed a self-cleavage of 0.88.
With U9C U20C A31G G60A the self-cleavage was 0.13.
Variant U20C G49U C84U U85A U87C A124G has a self-cleavage of 0.03.
Variant U15C A43G U47C A136G A140G has a self-cleavage of 0.
In the case of U85C U100C C131G, the self-cleavage is reported as 0.
A22G A67G A78G A142G showed a self-cleavage of 0.
For U15A A69G U73C A141G U143C, the self-cleavage was 0.
A107U U108A U134A showed a self-cleavage of 1.23.
In the case of U12C U108C A117G A124U A138C, the self-cleavage is reported as 0.
With U12C A22C U47A A136G A142G the self-cleavage was 2.17.
In the case of U12C A31G G60A A69G U96C, the self-cleavage is reported as 0.
G25A G60A C113A A121U showed a self-cleavage of 0.03.
In the case of U23A A42G A69U G72A, the self-cleavage is reported as 0.08.
Variant U100C A140U A142G has a self-cleavage of 2.46.
Work on G21A U96C U134A yielded a self-cleavage of 0.26.
With A57G A77G U143A the self-cleavage was 1.39.
With A43U A79G U112A the self-cleavage was 0.98.
U12C A79G C111U A141U showed a self-cleavage of 1.37.
Variant A2G U14C A78G U132C has a self-cleavage of 0.42.
In the case of A2G A43G U46A U62C U108C, the self-cleavage is reported as 0.61.
Work on U1C A67U U112C A121G yielded a self-cleavage of 0.14.
U13C A136U A141G U143C showed a self-cleavage of 1.62.
In the case of U9A G27A A69G A142G, the self-cleavage is reported as 0.42.
In the case of U15A A50U C71G A77G A107U A121U, the self-cleavage is reported as 0.09.
U26A U100C A107G A124U showed a self-cleavage of 1.7.
A24G A107G A141G showed a self-cleavage of 1.84.
With U9C U62C U91G U112C the self-cleavage was 0.
U15C A22C U47A U96C gave a self-cleavage of 0.09.
With A43G U96A G139A the self-cleavage was 0.13.
A6U A22G G34A U47C gave a self-cleavage of 0.74.
U23C C28U U62C A79G gave a self-cleavage of 0.08.
Variant U15C U104C A117U has a self-cleavage of 0.79.
For U14C U29A U91A, the self-cleavage was 0.27.
In the case of U13C G35A U45C A64U, the self-cleavage is reported as 0.38.
Work on G7U A59U A141U yielded a self-cleavage of 1.03.
A22G A65G G97A showed a self-cleavage of 0.11.
U26A U81C G106A gave a self-cleavage of 1.15.
U62C U130G A142G gave a self-cleavage of 0.
U47C A78G U132A gave a self-cleavage of 1.72.
G11A G33A A64G A78G U91C showed a self-cleavage of 0.19.
In the case of U108C A138U U143A, the self-cleavage is reported as 1.8.
U20G U47A U109C U115A gave a self-cleavage of 1.11.
For A6G U15C U47G A77G U81C G97U A141G, the self-cleavage was 0.36.
With G11A A57G U134C the self-cleavage was 1.01.
For U12G A57U A78G A124G A138G, the self-cleavage was 0.14.
Variant U5C U23A C68U U115C A117C has a self-cleavage of 1.21.
Work on U26G A30G G33A U52A G126A yielded a self-cleavage of 1.49.
Variant U14C U130C U132A has a self-cleavage of 1.63.
For U15C A78U U109C, the self-cleavage was 2.07.
In the case of U9C U87C A140G, the self-cleavage is reported as 0.33.
Variant A65G A140G A141G has a self-cleavage of 0.12.
For C18U U52A U73A, the self-cleavage was 1.29.
In the case of A77G G125A A138U, the self-cleavage is reported as 2.07.
In the case of A22G A43G A94U U100A, the self-cleavage is reported as 0.55.
With A43G A57G C66U U109A the self-cleavage was 0.09.
With A2G U45C U100A the self-cleavage was 0.41.
Work on U14C U102C U143A yielded a self-cleavage of 1.78.
A2G U13A U85C A138G showed a self-cleavage of 0.
Variant U13C U45A A121G G125U U130A has a self-cleavage of 1.71.
Work on A43G C51U G93A yielded a self-cleavage of 0.07.
A24U U47C A141G gave a self-cleavage of 2.17.
C37A A43G A141G gave a self-cleavage of 1.37.
In the case of U9C A69G C113U, the self-cleavage is reported as 0.75.
In the case of G10A A43G U73C A136G, the self-cleavage is reported as 1.45.
In the case of A59U A79G A124U, the self-cleavage is reported as 1.41.
C3A A67G A77G A136G showed a self-cleavage of 1.84.
With A50U U104G U119A the self-cleavage was 0.36.
Variant U14C A31G U85A U108C has a self-cleavage of 0.71.
Work on U12C G32C U47C yielded a self-cleavage of 1.
In the case of A57U A64U A79G A92U, the self-cleavage is reported as 0.07.
Work on U1C A77G U96A A136G yielded a self-cleavage of 0.13.
With U15C C16U C19U the self-cleavage was 0.75.
U13C U87G U130C A138G showed a self-cleavage of 0.42.
A57G U73A U132C showed a self-cleavage of 0.83.
Work on U12C A78U A121U yielded a self-cleavage of 2.
With U26C U39C U100C A138G the self-cleavage was 1.78.
With U14A U85A G86U A94G the self-cleavage was 0.08.
With U26A G34A U87C U102C A124U the self-cleavage was 0.06.
With A92G U108C U132C the self-cleavage was 0.
With U62C A117U A138U the self-cleavage was 0.07.
With U13C A31G U85C U134A U143A the self-cleavage was 0.
In the case of U9C A57G C76U, the self-cleavage is reported as 1.4.
With C3G U23C U81A U143A the self-cleavage was 1.18.
In the case of U12C A31U G35A, the self-cleavage is reported as 1.06.
In the case of A57G C66U A77G A140G, the self-cleavage is reported as 0.02.
With U12C U13C U14C A129U the self-cleavage was 1.02.
Work on U46C U73A A77G A124U yielded a self-cleavage of 0.9.
Variant U12C A136G G144U has a self-cleavage of 1.31.
In the case of U14C A43G U130A, the self-cleavage is reported as 1.31.
With U9C U39A A140G the self-cleavage was 1.21.
For U39C U47A U73C U112C, the self-cleavage was 1.17.
U12C U20C U47C G70A U100A showed a self-cleavage of 0.3.
In the case of U47A A64G U119G, the self-cleavage is reported as 0.25.
With U46C U52A U85A U102C A142G the self-cleavage was 0.
U46A A94G U100C gave a self-cleavage of 0.29.
For A30U A31G A79G U96A A121G, the self-cleavage was 0.
Work on U39C A78G U85A U108C A129U yielded a self-cleavage of 0.13.
Variant U15C U47C U62C U143A has a self-cleavage of 0.53.
For A30G G49C A59G, the self-cleavage was 0.43.
In the case of U1A A6U A57G A121G, the self-cleavage is reported as 0.
In the case of G36A U45C A67U U109C U115A U134A, the self-cleavage is reported as 0.03.
Work on U13C U46C U96C yielded a self-cleavage of 0.08.
In the case of U47C U52A U62C C63U, the self-cleavage is reported as 0.05.
With A64C U91A A136G the self-cleavage was 0.08.
Variant U46C U52A C120U has a self-cleavage of 1.88.
Variant U52C G58U U62C C123U has a self-cleavage of 0.03.
U5C U108C C123U showed a self-cleavage of 1.04.
A64U A79G G82U A92U C120U A138G gave a self-cleavage of 0.09.
G8A A138G A140G A141G gave a self-cleavage of 0.79.
Variant U23C G114U U115A A121U has a self-cleavage of 1.36.
U14C A78G U134A gave a self-cleavage of 0.88.
With A22G U73C U108C the self-cleavage was 0.
In the case of U23C A30U U85A, the self-cleavage is reported as 0.07.
With U47C U52C U119C A140G the self-cleavage was 1.84.
With U1C A6G U52C C66U A138G the self-cleavage was 0.11.
In the case of A79G U109A U132C, the self-cleavage is reported as 1.28.
With U13C G55A U108C the self-cleavage was 0.91.
Variant A57G A67C A117G has a self-cleavage of 0.32.
With U13C U15C U102C A107G the self-cleavage was 0.89.
For A2G A67G A94G, the self-cleavage was 0.16.
